Test results: the supplement of paper PMC11417369
Some of the results follow.

What follows are sequences tested on PfHDP1 homeodomain (GST-tagged) (assay: gcPBM binding intensity (ln(normalized median fluorescence intensity)); higher = stronger DNA binding).
Outline: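 An Agilent 4 × 180k array of primer-extended double-stranded 36-bp intergenic genomic probes, with negative controls, was incubated for 1 h with GST-tagged P. falciparum DNA-binding domains expressed in E. coli. Alexa488 anti-GST antibody detected bound protein, scanned at 488 nm. Binding intensity is the highest Masliner-normalised natural-log median intensity across replicate spots of either probe orientation.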
In the case of “TAAATATATTAATACACACACGATATGTACAAAAAA [CACACA_site540]”, the “gcPBM binding intensity (ln)” value is reported as 6.53. With “GGCAATACATAATAATGTACATAATTATATAATATT [XGTACX_site3739]” the “gcPBM binding intensity (ln)” value was 6.46. “TATATCTGTTTATATTGTACACATATATATATATAT [XGTACX_site714]” was tested, and the “gcPBM binding intensity (ln)” value was 9.3. “TACGTATTTTAATATTTACACACTTATTTTTTATAT [CACACA_site7924]” was tested, and the “gcPBM binding intensity (ln)” value was 6.65. For “GGACAACAAACAAACACACACAAAAAAAAAATAAAA [CACACA_site3791]”, the “gcPBM binding intensity (ln)” value was 6.59. In the case of “AATTTTTCAAATTAATGTACTTGTTATAAATTGTAA [XGTACX_site5428]”, the “gcPBM binding intensity (ln)” value is reported as 6.19. For “TTGTTTCTTTTTTTTTGTACATATATATTGTATATT [XGTACX_site7602]”, the “gcPBM binding intensity (ln)” value was 7.07. For “TATATAATATATATATGTACATATATATATGTTTTT [XGTACX_site3347]”, the “gcPBM binding intensity (ln)” value was 6.44. In the case of “TATACATAAAACAGTTCACACATTGTATGAATATAT [CACACA_site4751]”, the “gcPBM binding intensity (ln)” value is reported as 6.52. For “TACAAACACCCATATACACACAAAAAAAAAATAAAA [CACACA_site5421]”, the “gcPBM binding intensity (ln)” value was 6.53. For “AGAAAAACTTATATGATACACACGATAAACAAAATA [CACACA_site1038]”, the “gcPBM binding intensity (ln)” value was 6.55. For “ATATTTTAAAATAATACACACAAAATGATTCTTAAT [CACACA_site2930]”, the “gcPBM binding intensity (ln)” value was 7.01. In the case of “AACAATAAATTATTATGTACACATATATTATATATA [XGTACX_site4629]”, the “gcPBM binding intensity (ln)” value is reported as 6.47. “TATATTATATAATTTTAACACACAAGAATATAAACT [CACACA_site8378]” was tested, and the “gcPBM binding intensity (ln)” value was 6.75. With “ATAAGTATTACTAGTACACACAAGTTGTTAATCCTT [CACACA_site3324]” the “gcPBM binding intensity (ln)” value was 6.9. “AAACTTCAAAAAGAGCACTTGAATTTTTTTTTTTTT [TGCATGCA_negctrl_site133]” was tested, and the “gcPBM binding intensity (ln)” value was 6.1. “AAAAAGAACACAAAAAGTACAAAAATTATAATGATA [XGTACX_site2676]” was tested, and the “gcPBM binding intensity (ln)” value was 6.47. For “CATAAATACAAATATACACACATATTTATATTTATA [CACACA_site7277]”, the “gcPBM binding intensity (ln)” value was 6.69. With “AATATGTTTTACGTCTCACACATATAGGTTTATATT [CACACA_site4713]” the “gcPBM binding intensity (ln)” value was 6.71. “ATTATACTTTCCATTCGTACATATATAAATAAATAA [XGTACX_site6245]” was tested, and the “gcPBM binding intensity (ln)” value was 7.19. In the case of “ATATATAGATGTGAATTATTTATATTATCTATTCTT [CACACA_negctrl_site518]”, the “gcPBM binding intensity (ln)” value is reported as 6.07. For GTATTTATGTGTTTGGTGCAAGGGAGAATTTTTTTT, the “gcPBM binding intensity (ln)” value was 8.82. For “TCAAAGTAAAACAGGACATGCACAGAACATCCTGCC [TGCATGCA_site2]”, the “gcPBM binding intensity (ln)” value was 7.01. For “TACACAAAGTTACATACACACTAATATTTACACCAT [CACACA_site6602]”, the “gcPBM binding intensity (ln)” value was 6.83. With “TAAAGAAAAATATAAAGTACAAAAATAAAAAAAATA [XGTACX_site8226]” the “gcPBM binding intensity (ln)” value was 6.74. In the case of “AAAAAAAAAACATACACACACATATAGATTTATATG [CACACA_site6847]”, the “gcPBM binding intensity (ln)” value is reported as 6.56. With “ATTTATAAAATATAATTACATTTTTAAATAATAAAA [GTGCAC_negctrl_site43]” the “gcPBM binding intensity (ln)” value was 6.18. For “CTTATGTGCATACCTACACACTTACCTATATTTATA [CACACA_site7411]”, the “gcPBM binding intensity (ln)” value was 9.67. With “TTACGATTTAAAATGGGTACATATATATGAAAAAAA [XGTACX_site545]” the “gcPBM binding intensity (ln)” value was 6.72. With “ATATAATCTGAGTGCACACAAATAAATAAACATACA [CACACA_site422]” the “gcPBM binding intensity (ln)” value was 10.2. “TTTTTTTTGTATTTTTCACACACACCGAAGTAAACA [CACACA_site8575]” was tested, and the “gcPBM binding intensity (ln)” value was 6.91. In the case of “TAAAAGGATGCATATACACACATATAGATTTATATA [CACACA_site7336]”, the “gcPBM binding intensity (ln)” value is reported as 6.47. “TTAAATTCGTCATTTTAAAATAATACAAAAGTTCAA [CACACA_negctrl_site19]” was tested, and the “gcPBM binding intensity (ln)” value was 6.31. “TTTTTCCTTATTAATACACACATTCACCTTTTAAAT [CACACA_site479]” was tested, and the “gcPBM binding intensity (ln)” value was 7.62. With “AGTTGCATACATTGAAGTACAGAACATTTATATATA [XGTACX_site240]” the “gcPBM binding intensity (ln)” value was 6.55. In the case of “TTTTTGTATGCTTCCCGACTACATTATGCCATAAAT [CACACA_negctrl_site136]”, the “gcPBM binding intensity (ln)” value is reported as 7.21. In the case of “AAAAAAAAAAAAAAAAAAAAAAAAAAATACATATGT [XGTACX_negctrl_site95]”, the “gcPBM binding intensity (ln)” value is reported as 7.17. With “GATTATATATGAAAATGTACAAATATATATATATAT [XGTACX_site5963]” the “gcPBM binding intensity (ln)” value was 9.23. “TCACTAAACCATTAGAGTACTTGACATATAATGAGC [XGTACX_site3272]” was tested, and the “gcPBM binding intensity (ln)” value was 6.17. “TATATATAAAAAACATGTACACAAATTTACATACAT [XGTACX_site4777]” was tested, and the “gcPBM binding intensity (ln)” value was 6.25. “AAGAGTTAAAAAAATACACACATATATATTTTTTTA [CACACA_site1980]” was tested, and the “gcPBM binding intensity (ln)” value was 6.57. “CATAATTATGCAATTGCACACAACTATCATTTTTTT [CACACA_site2997]” was tested, and the “gcPBM binding intensity (ln)” value was 10.1. With “TCATTCATATGTTACACACACACACCCACATAAAAA [CACACA_site3245]” the “gcPBM binding intensity (ln)” value was 7.04. With “AAACCAAGGCACAATAATTAAATAAATAAAATCATG [GTGCAC_negctrl_site574]” the “gcPBM binding intensity (ln)” value was 6.16.
